Measured values from paper PMC4336329 (PLoS ONE, 2015).
Out of some 310,000 compounds screened, about 14,000 (4.5%) showed an effect of 50% or more. The effect is printed as a negative number. This is one part of the list.

target: human ether-à-go-go-related gene (hERG) potassium channel (human, UniProt Q12809); test: primary screen, population patch clamp on CHO cells stably expressing hERG
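Note: peak tail current of the secondary pulse compared with the same well before compound.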

human ether-à-go-go-related gene (hERG) potassium channel, sequence (Q12809 whole entry, looked up): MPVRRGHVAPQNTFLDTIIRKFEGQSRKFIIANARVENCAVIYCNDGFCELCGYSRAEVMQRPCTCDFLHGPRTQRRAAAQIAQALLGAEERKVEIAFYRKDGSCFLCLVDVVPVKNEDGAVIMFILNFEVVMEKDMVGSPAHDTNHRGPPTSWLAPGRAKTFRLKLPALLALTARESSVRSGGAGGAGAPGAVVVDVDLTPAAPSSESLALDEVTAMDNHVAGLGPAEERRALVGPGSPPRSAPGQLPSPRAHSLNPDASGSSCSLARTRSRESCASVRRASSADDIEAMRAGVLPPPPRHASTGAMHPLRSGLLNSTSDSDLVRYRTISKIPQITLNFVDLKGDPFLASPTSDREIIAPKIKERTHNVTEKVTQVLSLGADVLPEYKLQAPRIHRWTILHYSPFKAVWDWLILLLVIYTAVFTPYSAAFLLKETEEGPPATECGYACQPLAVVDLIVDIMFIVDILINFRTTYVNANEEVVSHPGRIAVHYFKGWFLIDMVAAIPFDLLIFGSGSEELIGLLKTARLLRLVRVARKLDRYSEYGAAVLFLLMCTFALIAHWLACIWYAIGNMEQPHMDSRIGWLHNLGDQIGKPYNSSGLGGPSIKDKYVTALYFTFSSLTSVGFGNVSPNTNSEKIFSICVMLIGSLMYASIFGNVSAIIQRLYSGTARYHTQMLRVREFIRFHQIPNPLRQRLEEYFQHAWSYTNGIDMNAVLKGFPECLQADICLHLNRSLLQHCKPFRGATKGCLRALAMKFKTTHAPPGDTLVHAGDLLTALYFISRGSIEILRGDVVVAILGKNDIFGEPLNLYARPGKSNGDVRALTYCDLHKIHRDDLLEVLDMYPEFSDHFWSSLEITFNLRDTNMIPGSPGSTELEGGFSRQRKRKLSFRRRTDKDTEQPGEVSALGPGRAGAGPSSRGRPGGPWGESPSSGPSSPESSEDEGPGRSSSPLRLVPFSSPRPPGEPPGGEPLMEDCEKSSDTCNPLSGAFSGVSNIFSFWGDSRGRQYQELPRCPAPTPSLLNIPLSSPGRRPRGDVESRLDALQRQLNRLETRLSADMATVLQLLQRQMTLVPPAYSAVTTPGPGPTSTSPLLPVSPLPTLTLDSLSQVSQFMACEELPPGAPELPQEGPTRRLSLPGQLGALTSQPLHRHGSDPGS

SMILES	hERG current change (%, negative = inhibition) at 10uM [%]
COc1ccc(CCN2C(=O)c3[nH]nc(-c4ccccc4O)c3C2c2ccc(C)cc2)cc1OC (centres unmarked)	-1.7
CC12CCC(C(=O)O)(C/C1=N\O)C2(C)C (centres unmarked)	-1.55
COc1ccc(C)cc1NC(=O)C1CCN(S(=O)(=O)c2cccs2)CC1	17.3
Cc1ccccc1-c1nc(CN2CCC(C(=O)NC3CCN(Cc4ccccc4)CC3)CC2)c(C)o1	-43
Cn1c(OCc2cccnc2)nc2c1c(=O)n(Cc1ccc(Br)cc1)c(=O)n2C	-57.3
Cc1cnc(C(=O)OCC(=O)NC2CCCCCC2)cn1	26.8
CCc1n[nH]c(=S)n1/N=C/c1ccc(-c2ccc(Br)cc2)o1	0.892
O=C1NC(=O)/C(=C\c2ccc(Cl)nc2)S1	16.3
Cc1ccc([N+](=O)[O-])cc1NC(=O)C1CCN(S(C)(=O)=O)CC1	28.3
CCCCN(C)C(=O)c1cc2cc3ccc(OC)cc3nc2o1	-23
COc1ccc(Cl)cc1C(=O)NNC(=O)COC(=O)CC(NC(C)=O)c1ccccc1 (centres unmarked)	6.32
CCCOc1ccc(Cl)cc1/C=C1/C(=O)ON=C1C	3.34
CN1C(=O)N(C)C2(c3ccccc3)Nn3c(s/c(=C/c4ccccc4F)c3=O)=NC12c1ccccc1 (centres unmarked)	6.11
Cc1c(C(=O)NCCSCc2ccc(Cl)cc2Cl)cccc1[N+](=O)[O-]	17.5
Cc1ccsc1C(=O)NNC(=O)CCN1CCN(c2ccccc2)CC1	-12.8
CCC1(CC)NC(=O)NC1=O	15.4
Cl.Fc1ccc(-c2ccc(CNCc3ccccn3)o2)cc1	-25.4
O=C(NC1CCSc2ccccc21)c1ccccc1F (centres unmarked)	6.76
Cc1ccc(S(=O)(=O)NCc2n[nH]c(=S)n2C)cc1	21
COc1ccccc1CNC(=O)CCCc1cn(C)c2ccccc12	-16.8
Cc1ccc(SCc2[nH]nc3c2C2(C(=O)N(C)c4ccccc42)C(C#N)=C(N)O3)cc1 (centres unmarked)	-3.04
C/C(=N\NC(=O)c1nnn(-c2nonc2N)c1CN(C)c1ccccc1)c1cccnc1	19.2

SMILES	hERG current change (%, negative = inhibition) at 10uM [%]
CCCCCCn1c(O)c(C=NCCN2CCOCC2)c(=O)[nH]c1=O	-7.56
Cc1cnc(C(=O)OC(C)C(=O)Nc2ccc(Cl)cn2)cn1 (centres unmarked)	4.65
COc1ccc(C)cc1NC(=O)C1CCN(S(C)(=O)=O)CC1	8.31
CS(=O)(=O)N(Cc1nnc(-c2cccs2)o1)c1ccc(Cl)cc1F	-18.4
Cc1noc(/C=C/N(C)C)c1S(=O)(=O)N(C)CC(=O)NC1CCCCC1	-0.565
COc1ccc(C2NS(=O)(=O)N=C2N)cc1 (centres unmarked)	15.8
O=C(NCc1ccncc1)C(=O)NCc1ccncc1	12.7
CCC(C)NC(=O)Cn1cnc2sc(C)cc2c1=O (centres unmarked)	-0.928
COc1ccc(CN(C)C(=O)c2cc(S(=O)(=O)NCc3ccccc3)ccc2C)c(OC)c1	-40.1
Cc1noc(C)c1CC(=O)Nc1ccc2c(c1)OCO2	-4.52
CC(N=Cc1ccccc1O)c1ccccc1 (centres unmarked)	9.43
NS(=O)(=O)c1ccc(CNC(=O)Cc2ccccc2F)cc1	-2.22
CC(C)NC(=O)c1ccc(CS(=O)(=O)c2ccc(Br)cc2)o1	-8.14
COc1ccc(NC(=O)O/N=C2/CCCc3ccc(OC)cc32)cc1	-1.7
CCOC(=O)N1CCN(C(=O)c2ccccc2NS(=O)(=O)c2ccc(C)cc2)CC1	-10.8
Cc1cccc(-n2c(Cc3cc(=O)[nH]c(=O)[nH]3)nnc2SCC(=O)Nc2cccc(C(F)(F)F)c2)c1	4.79
Cc1ccc(C)c(NC(=O)C2CC(O)CN2C(=O)Oc2ccccc2)c1 (centres unmarked)	17.6
COc1ccc(C2CC(=O)C(C=NCCCO)=C(O)C2)cc1 (centres unmarked)	11.8
Cc1ccc(CN2C(=O)N/C(=C\c3ccc(-c4ccc(C(=O)O)cc4C)o3)C2=O)cc1	-8.89
COc1cc(OC)c(NC(=O)C(=O)CC(=O)c2ccc(C)cc2C)cc1Cl	14.2
Cc1ccccc1-n1c(SCC(=O)c2cc(C)n(C)c2C)nnc1-c1cccnc1	-27.6
CCN(CC)S(=O)(=O)c1ccc(C)c(NC(=O)Cn2c(=O)cnc3ccccc32)c1	-26.5
